The supplement of paper PMC7826260
The list shows a part of the results. Viral Rep nickase domains cut single-stranded DNA in vitro (1 h at 37 °C, 3 µM enzyme); the outer parts of the 90-letter strands are left off. Numbers give uncut DNA relative to the enzyme-free pool, as log2; more negative means more cut, near 0 not cut, and no call is made. Because reads are shares of a total, they shift together; where an enzyme cuts many sequences, the uncut ones exceed 0.

What was measured:
Assay in all cases: uncleaved DNA left, log2 of reads against the no-enzyme library (log2 ratio); higher = less cleavage (more negative = more Rep cleavage of the k-mer); sequences stand for … in CTCGTCCG…ACCGGAGA
[1] = test system: T1, Rep nickase domain of Muscovy duck circovirus
T1 sequence (Rep 1-111, printed without the tag): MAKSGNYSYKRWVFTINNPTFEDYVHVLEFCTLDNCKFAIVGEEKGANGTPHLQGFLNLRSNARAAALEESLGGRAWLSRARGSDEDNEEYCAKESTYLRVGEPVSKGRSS
Experimental: (§1)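 A pool of 90-nt single-stranded DNAs with seven random bases just before the constant AC of the nick site (name = the seven bases) was cut by 3 µM recombinant His6-SUMO-tagged Rep nickase domain (300 nM DNA, 50 mM HEPES pH 8.0, 50 mM NaCl, 1 mM MnCl2, 1 h, 37 °C, three replicates). Uncut DNA was amplified and sequenced.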

[2] = test system: T2, Rep nickase domain of banana bunchy top virus
T2 sequence (Rep 1-94, printed without the tag): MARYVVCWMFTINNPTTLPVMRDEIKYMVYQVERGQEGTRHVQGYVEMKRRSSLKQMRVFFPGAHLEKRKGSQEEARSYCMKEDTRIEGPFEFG
Experimental: as §1

[3] = test system: T3, Rep nickase domain of cabbage leaf curl virus
T3 sequence (Rep 1-116, printed without the tag): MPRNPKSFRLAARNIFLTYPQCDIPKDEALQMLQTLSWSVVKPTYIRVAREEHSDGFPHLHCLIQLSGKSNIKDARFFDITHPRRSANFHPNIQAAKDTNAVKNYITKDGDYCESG
Experimental: as §1

[4] = test system: T4, Rep nickase domain of chickpea chlorotic dwarf virus
T4 sequence (Rep 1-124, printed without the tag): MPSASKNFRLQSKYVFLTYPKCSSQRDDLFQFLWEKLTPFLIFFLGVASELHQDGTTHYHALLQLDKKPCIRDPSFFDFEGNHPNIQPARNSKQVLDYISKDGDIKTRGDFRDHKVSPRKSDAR
Experimental: as §1

[5] = test system: T5, Rep nickase domain of faba bean necrotic yellows virus
T5 sequence (Rep 1-98, printed without the tag): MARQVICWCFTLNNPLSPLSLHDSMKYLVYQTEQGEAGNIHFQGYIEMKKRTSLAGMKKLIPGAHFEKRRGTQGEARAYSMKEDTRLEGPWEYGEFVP
Experimental: as §1

[6] = test system: T6, Rep nickase domain of maize striate mosaic virus
T6 sequence (Rep 1-117, printed without the tag): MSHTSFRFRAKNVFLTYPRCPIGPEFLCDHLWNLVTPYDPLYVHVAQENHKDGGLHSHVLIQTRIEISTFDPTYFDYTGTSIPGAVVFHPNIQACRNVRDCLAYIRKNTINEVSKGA
Experimental: as §1

[7] = test system: T7, Rep nickase domain of porcine circovirus 2
T7 sequence (Rep 2-116, printed without the tag): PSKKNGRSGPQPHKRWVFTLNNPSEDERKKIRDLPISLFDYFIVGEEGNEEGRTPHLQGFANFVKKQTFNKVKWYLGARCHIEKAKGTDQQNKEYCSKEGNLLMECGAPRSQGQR
Experimental: as §1

[8] = test system: T8, Rep nickase domain of tomato golden mosaic virus
T8 sequence (Rep 1-124, printed without the tag): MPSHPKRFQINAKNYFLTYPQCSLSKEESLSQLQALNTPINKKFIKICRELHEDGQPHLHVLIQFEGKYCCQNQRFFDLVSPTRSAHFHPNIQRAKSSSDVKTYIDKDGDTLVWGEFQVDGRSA
Experimental: as §1

[9] = test system: T9, Rep nickase domain of tomato yellow leaf curl virus
T9 sequence (Rep 1-136, printed without the tag): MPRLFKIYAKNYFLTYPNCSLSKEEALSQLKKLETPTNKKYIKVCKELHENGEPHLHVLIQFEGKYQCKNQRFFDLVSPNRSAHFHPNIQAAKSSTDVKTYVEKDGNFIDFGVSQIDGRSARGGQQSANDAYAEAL
Experimental: as §1

[10] = test system: T10, Rep nickase domain of wheat dwarf virus
T10 sequence (Rep 1-137, printed without the tag): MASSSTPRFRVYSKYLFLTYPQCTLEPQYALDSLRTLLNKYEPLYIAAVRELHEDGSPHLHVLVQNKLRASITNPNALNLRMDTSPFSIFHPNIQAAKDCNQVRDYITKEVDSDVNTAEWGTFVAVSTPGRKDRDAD
Experimental: as §1

Sequence	uncleaved DNA left (log2) [1]	uncleaved DNA left (log2) [2]	uncleaved DNA left (log2) [3]	uncleaved DNA left (log2) [4]	uncleaved DNA left (log2) [5]	uncleaved DNA left (log2) [6]	uncleaved DNA left (log2) [7]	uncleaved DNA left (log2) [8]	uncleaved DNA left (log2) [9]	uncleaved DNA left (log2) [10]
TTTCTTA	-0.0616	0.0267	0.261	-0.549	0.0834	0.216	-0.228	0.0625	0.0443	-0.0558
CGCTAGA	-0.109	-0.136	-0.227	-0.28	0.000287	-0.657	-0.0204	-0.0758	-0.0669	-0.192
CCAATAG	0.141	0.187	-0.489	-0.076	0.148	-1.09	0.402	0.147	0.285	0.0518
GATCGTT	0.0259	-0.0152	0.176	-0.243	-0.00395	0.769	-1.41	-0.0945	-0.00376	-0.0427
ATGGAGC	0.177	0.116	-0.0352	0.428	0.113	-0.0661	0.267	0.186	-0.0183	0.0672
ATTCGGC	-0.116	-0.106	-0.197	-0.294	-0.0363	-1.01	-0.00521	-0.0232	-0.124	-0.096
ACCAATT	0.116	-0.0572	-0.383	-2.15	0.089	-0.616	-0.133	0.175	-0.0822	0.0771
GGCGTAT	-0.0857	0.0119	0.336	1.1	-0.236	1.48	-0.0129	-0.0821	0.053	0.0177
ACTTGAC	-0.0882	-0.0644	-0.281	-0.0423	0.0478	-0.641	0.134	-0.0787	-0.0908	-0.027
CGTACGG	0.01	0.0133	0.228	0.889	-0.0765	1.73	0.119	-0.0246	-0.0539	0.0565
CAGGCTA	-0.0315	-0.0561	0.0306	-0.543	-0.00696	0.304	-0.147	0.00373	-0.133	-0.113
CTATTCG	-0.156	-0.0344	-0.732	0.594	-0.0129	-0.606	-0.0986	-0.218	-0.0216	-0.0254
TCCTCAG	-0.0805	-0.011	-0.433	-0.777	0.073	-0.945	0.142	0.0201	0.0956	-0.0683
AGTGGGA	0.109	0.0375	0.12	0.538	-0.0354	0.408	-0.00714	0.0793	-0.0326	0.0182
CCACCTG	-0.00436	-0.0194	-0.141	-0.134	-0.00434	0.00123	-0.185	-0.116	-0.0225	4e-05
TAATAGC	0.0764	0.0732	-3.34	-2.88	0.1	-2.4	0.178	-0.611	0.143	-0.815
CATACCA	-0.0286	0.00717	-0.0942	-2.08	0.0105	-0.303	-0.446	-0.0611	0.0491	0.054
AAGGGGT	0.157	0.00135	0.276	1.47	0.109	1.76	0.257	0.077	-0.0823	0.0169
CCCCGAG	-0.00256	-0.0811	0.656	1.33	-0.0911	0.352	0.0946	0.0121	-0.0449	-0.0106
GCCGATG	-0.101	-0.0984	0.0131	0.534	-0.0623	0.395	0.238	0.0245	-0.154	-0.174

Sequence	uncleaved DNA left (log2) [1]	uncleaved DNA left (log2) [2]	uncleaved DNA left (log2) [3]	uncleaved DNA left (log2) [4]	uncleaved DNA left (log2) [5]	uncleaved DNA left (log2) [6]	uncleaved DNA left (log2) [7]	uncleaved DNA left (log2) [8]	uncleaved DNA left (log2) [9]	uncleaved DNA left (log2) [10]
TGATGGT	-0.33	0.0298	0.238	0.473	0.107	1.4	-0.477	0.103	0.0131	0.0124
CCAAGAA	-0.0446	0.021	0.0519	0.268	-0.0179	-0.156	0.153	0.0191	-0.138	-0.0429
TTTGATC	0.121	-0.0763	0.173	-0.215	-0.0253	-0.578	-0.01	-0.0831	0.00523	0.0365
CGCAAAC	0.00337	0.00541	-0.156	-0.162	-0.052	-0.612	-0.0776	-0.0762	-0.0127	0.00509
ATACAGT	0.0759	-0.0305	-0.507	-1.55	-0.0117	-0.897	0.0391	0.0254	-0.0379	-0.0302
GACCAAG	0.215	0.14	-0.577	-0.438	0.0878	-0.681	0.117	0.144	0.111	0.189
CGCTTCC	-0.107	-0.0781	0.0973	-0.0907	-0.0883	-0.343	-0.154	-0.135	-0.0146	-0.0803
ATTGCTT	0.125	0.126	-0.422	-1.45	0.119	-0.897	-0.234	0.0517	0.267	-0.017
CCGTTCC	-0.0782	-0.0911	0.122	0.124	-0.161	0.0204	-0.00152	-0.0628	-0.0503	-0.116
TTTTGCT	-1.46	-0.0645	-0.79	-1.4	-0.0161	-1.08	-0.979	-0.0851	0.00705	-0.161
GCCCCGT	0.0147	-0.0162	0.0244	-0.0261	0.0727	-0.278	-0.039	0.0566	0.0253	-0.0322
CGGTGCT	-0.329	0.0162	-0.378	-0.755	0.038	-0.548	-2.32	-0.00799	0.134	-0.00385
TCCCTTC	0.16	-0.195	0.16	-0.228	-0.131	-0.533	-0.0285	-0.185	-0.131	0.0177
AGACCGT	0.144	0.0331	0.642	0.996	0.0848	1.41	0.115	0.138	0.0575	0.112
AGCTTAA	0.0724	0.0908	-0.0267	0.187	0.0648	0.119	-0.778	-0.0128	-0.0321	0.131
CCCACCA	-0.142	-0.0716	-0.254	-1.44	-0.0225	-0.636	-0.336	-0.147	-0.147	-0.132
ATGAATC	0.0933	0.0778	0.0428	0.209	0.0322	-0.597	0.1	0.118	-0.0523	0.0059
TGGTCGC	0.0996	-0.00657	-0.208	-0.367	0.134	-0.55	0.117	-0.154	0.0568	0.0285
TCGTAGG	0.115	0.0434	0.399	1.04	-0.0018	1.24	0.0679	-0.0149	-0.0809	0.0667
AATGTGA	0.0194	-0.0724	-0.453	-0.639	0.0108	-0.938	0.0319	0.0556	0.0318	0.0192

Sequence	uncleaved DNA left (log2) [1]	uncleaved DNA left (log2) [2]	uncleaved DNA left (log2) [3]	uncleaved DNA left (log2) [4]	uncleaved DNA left (log2) [5]	uncleaved DNA left (log2) [6]	uncleaved DNA left (log2) [7]	uncleaved DNA left (log2) [8]	uncleaved DNA left (log2) [9]	uncleaved DNA left (log2) [10]
GCCCCAG	0.0871	0.113	-0.347	-0.0885	0.123	-0.399	0.103	0.157	0.226	0.166
CTTAAAA	-0.0433	0.12	-0.0122	0.0589	0.023	-0.77	0.036	0.0608	-0.0399	0.131
CCCACAC	0.0657	0.0715	0.0437	-0.466	0.000856	-0.665	0.0127	0.0577	-0.126	-0.0226
ATGCCTA	-0.0716	-0.122	-0.14	-0.854	-0.000472	-0.624	-0.277	-0.14	-0.0752	-0.0939
AGCGGAC	0.00715	0.149	0.185	0.813	-0.127	1.18	0.0552	0.0436	-0.0174	-0.115
GCCGTCT	0.00168	-0.0948	0.0717	-0.539	-0.0785	0.0204	-0.00702	0.039	-0.0732	-0.271
AGATTGG	0.0298	0.025	-0.603	-0.576	-0.052	-1.15	0.116	-0.00608	0.0202	-0.0854
CGGTCTG	0.103	0.033	0.0927	0.635	-0.116	1.71	0.0944	0.0069	0.126	0.0774
GAAGAAG	0.00653	-0.0434	-0.525	-0.36	0.0705	-0.904	0.117	0.101	0.00955	-0.0825
CGTGTCA	-0.0875	0.0553	0.316	0.272	-0.0318	0.901	0.0158	-0.0192	0.082	0.135
ATGAGAT	0.0936	0.0531	0.313	1.68	0.101	1.8	0.208	0.159	-0.0354	0.158
TCTTCCT	-0.574	-0.0941	-0.157	-2.42	-0.0559	-0.539	-1.69	-0.224	-0.0285	-0.0745
CCACTCG	-0.12	0.0154	-0.855	-0.203	-0.0483	-0.977	0.103	0.0729	-0.00827	-0.101
CAATACT	-4.36	-3.73	-4.5	-3.96	-1.73	-3.74	-4.48	-4.04	-3.51	-3.79
AGCAGAC	0.034	-0.0512	0.086	0.469	0.0019	0.978	0.0447	0.0152	-0.143	0.00991
AGGTCTG	0.0387	0.125	0.212	1.01	0.024	1.65	0.122	0.13	0.0038	0.0271
TCACTTG	-0.103	-0.149	-0.324	-1.16	-0.113	-0.947	0.0265	-0.168	-0.142	-0.119
GGGGTAA	-0.0432	-0.028	0.756	1.79	-0.124	2.16	0.103	-0.142	0.0504	0.0864
GCCCGAG	-0.124	0.155	0.821	1.76	0.0575	1.74	0.166	0.0785	0.143	0.208
TGACGAC	-0.153	-0.0466	0.118	0.394	-0.098	0.493	-0.083	-0.0638	-0.0304	-0.075
